According to publication PMC4336329 (PLoS ONE, 2015):
About 2,200 (0.71%) of roughly 310,000 compounds showed an effect of 50% or more. Effects have a minus sign here. The list shows a part of the results.

Molecular target: human ether-à-go-go-related gene (hERG) potassium channel (human, UniProt Q12809)
Test: primary screen, population patch clamp on CHO cells stably expressing hERG

human ether-à-go-go-related gene (hERG) potassium channel, sequence (Q12809 whole entry, looked up): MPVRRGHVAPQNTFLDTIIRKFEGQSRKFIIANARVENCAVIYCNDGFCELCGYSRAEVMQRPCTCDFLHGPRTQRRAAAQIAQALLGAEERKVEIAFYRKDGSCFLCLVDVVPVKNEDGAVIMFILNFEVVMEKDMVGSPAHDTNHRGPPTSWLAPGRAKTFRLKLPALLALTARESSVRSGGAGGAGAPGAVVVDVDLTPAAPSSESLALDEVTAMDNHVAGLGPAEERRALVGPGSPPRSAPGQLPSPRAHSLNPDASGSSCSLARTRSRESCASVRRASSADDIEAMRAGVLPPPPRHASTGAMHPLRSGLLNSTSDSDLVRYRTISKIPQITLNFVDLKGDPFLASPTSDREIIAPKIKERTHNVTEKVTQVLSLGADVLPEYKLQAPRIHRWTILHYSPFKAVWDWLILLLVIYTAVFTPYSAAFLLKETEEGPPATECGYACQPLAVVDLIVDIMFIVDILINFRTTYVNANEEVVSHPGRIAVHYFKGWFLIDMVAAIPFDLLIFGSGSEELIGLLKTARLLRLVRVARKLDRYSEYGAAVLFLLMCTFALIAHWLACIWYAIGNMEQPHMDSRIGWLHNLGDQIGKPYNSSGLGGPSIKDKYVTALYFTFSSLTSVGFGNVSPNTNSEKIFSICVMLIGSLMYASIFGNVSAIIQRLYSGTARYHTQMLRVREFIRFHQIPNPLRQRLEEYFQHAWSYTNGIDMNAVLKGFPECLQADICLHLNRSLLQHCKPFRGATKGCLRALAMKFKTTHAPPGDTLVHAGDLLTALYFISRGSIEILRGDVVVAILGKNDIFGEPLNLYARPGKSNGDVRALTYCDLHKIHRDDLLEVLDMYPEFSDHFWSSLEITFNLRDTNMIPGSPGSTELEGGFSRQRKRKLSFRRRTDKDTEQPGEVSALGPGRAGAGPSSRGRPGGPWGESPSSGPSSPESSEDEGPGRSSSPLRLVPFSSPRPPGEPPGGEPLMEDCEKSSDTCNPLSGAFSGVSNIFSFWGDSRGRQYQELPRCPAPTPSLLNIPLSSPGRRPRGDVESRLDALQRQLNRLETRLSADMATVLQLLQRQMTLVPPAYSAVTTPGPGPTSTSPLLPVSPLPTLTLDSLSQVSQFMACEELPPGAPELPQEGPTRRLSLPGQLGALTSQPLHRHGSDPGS

| Compound | hERG current change (%, negative = inhibition) at 1uM |
| --- | --- |
| O=C1CCCN1CCC1CCCCN1Cc1nc(-c2cnccn2)no1 (centres unmarked) | 18.2% |
| Cc1ccccc1NS(=O)(=O)c1cc(C(=O)Nc2cccnc2)ccc1C | 15.7% |
| COc1cc2ccccc2cc1C(=O)OCc1nc2ccsc2c(=O)[nH]1 | 13.2% |
| O=[N+]([O-])c1ccccc1COc1ccc(Cl)c2cccnc12 | 11.5% |
| CC(O)CNc1nc2ccccc2n1CC(=O)N1CCN(Cc2ccccc2)CC1 (centres unmarked) | 4% |
| O=C(Nc1ccc(Br)cn1)c1ccc2ccccc2c1 | 19.3% |
| N#CC1=C(N)Oc2c(ccc3ccccc23)C1c1cccs1 (centres unmarked) | 3.42% |
| O=C(CN1CCN(C(=O)c2cccc(-n3cnnn3)c2)CC1)Nc1ccccc1Cl | -92.9% |
| COCCN(C(=O)c1ccc(N2CCCC2=O)cc1)c1c(N)n(CC(C)C)c(=O)[nH]c1=O | 12% |
| CCOC(=O)c1sc2ncn(/N=C/c3ccc(O)c(OC)c3)c(=O)c2c1C | 20.7% |
| Cc1cccc(NC(=O)CNC(=O)COC(=O)c2ccco2)c1C | 9.41% |
| Cc1c(CCO)c(=O)[nH]n1S(=O)(=O)c1ccccc1 | 14.2% |
| COc1ccccc1C(=O)NCC(=O)OCC(=O)c1cccc2ccccc12 | 10.6% |
| CSc1cccc(NC(=O)c2ccccc2N(C)S(C)(=O)=O)c1 | -6.82% |
| CC(C)(CNc1ccc([N+](=O)[O-])cc1Cl)N1CCOCC1 | 8.79% |
| COC(=O)Nc1cc(C)n(-c2ccccc2)n1 | 12.9% |
| COCCn1nc2cc(C(=O)NCc3cc(C(F)(F)F)cc(C(F)(F)F)c3)ccc2c1OC | 16% |
| CC(C)CCNC(=O)c1c[nH]c2ccc(S(=O)(=O)N3CCOCC3)cc2c1=O | 10.4% |
| CCOc1ccc(S(=O)(=O)Nc2ccc(C(=O)NCC3CCCO3)cc2)cc1 (centres unmarked) | -3.44% |

| Compound | hERG current change (%, negative = inhibition) at 1uM |
| --- | --- |
| NS(=O)(=O)c1ccc(CCNS(=O)(=O)c2ccc(Cl)cc2)cc1 | 7.98% |
| CCOc1ccc(-c2nnc(SCC(=O)N(CC)CC)n2N)cc1 | 8.24% |
| CCc1cccc(CC)c1NC(=S)N1CC2CC(C1)c1cccc(=O)n1C2 (centres unmarked) | 2.69% |
| CC(C)(C)NC(=O)NC(=O)COC(=O)CCC1CCCC1 | 13.8% |
| CC(C)C(=O)NCCc1nc(-c2ccc(Cl)cc2)no1 | 8.04% |
| O=C(c1ccccc1)N1N=C(C(F)(F)F)CC1(O)c1ccc(F)cc1 (centres unmarked) | 2.09% |
| Cc1ccc(C(=O)COC(=O)c2cc(Cl)nc3ccccc23)cc1 | 2% |
| Cc1ccc(Cn2ncc3c(NCCCN(C)C)ncnc32)cc1 | 8.12% |
| COc1ccccc1CNc1ncnc2c1cnn2-c1ccccc1 | 4.83% |
| O=C(CCN1c2ccccc2Sc2ccccc21)Oc1ccccc1 | 7.66% |
| COc1ccc(S(=O)(=O)N2CCN(S(=O)(=O)c3ccc4c(c3)OCCO4)CC2)cc1 | 10.8% |
| O=C1CCCN1c1ccc(S(=O)(=O)Oc2cccc(Cl)c2)cc1[N+](=O)[O-] | 11% |
| COc1ccc(S(=O)(=O)N(C)C)cc1NC(=O)Cc1c[nH]c2ccccc12 | 16.5% |
| CCOc1ccc(NC(=O)C2CCCN(C(=O)NCc3ccccc3)C2)cc1 (centres unmarked) | 14% |
| Cc1onc(-c2ccccc2)c1C(=O)NCCCc1ccccc1 | 6.17% |
| Cc1cc(C(=O)OCC(=O)Nc2ccc(S(N)(=O)=O)cc2)c2ccccc2n1 | 9.07% |
| COc1ccc(S(=O)(=O)N(C)CC(=O)N2CCCCC2)cc1Cl | 12.3% |
| O=C(c1ccc(Cl)cc1)C1CCCN(C2CCSCC2)C1 (centres unmarked) | -63.4% |
| Cc1ccc(S(=O)(=O)NCC2CCC(C(=O)N3CCOCC3)CC2)cc1 (centres unmarked) | 9.78% |

| Compound | hERG current change (%, negative = inhibition) at 1uM |
| --- | --- |
| Cc1ccc(S(=O)(=O)CCC(=O)OCC(=O)c2c[nH]c3ccccc23)cc1 | 12.7% |
| COc1ccc(NS(=O)(=O)c2cc(NC(=O)/C=C/c3cccs3)ccc2N2CCOCC2)cc1 | -0.951% |
| COc1ccccc1Nc1ncccc1C(=O)NCc1ccccc1 | 4.32% |
| O=C(CCc1nc2ccccc2c(=O)[nH]1)Nc1cc(Cl)ccc1N1CCCC1 | 10% |
| COc1cc(NC(=S)NCc2ccco2)cc(OC)c1OC | 2.98% |
| COc1cccc(CNC(=O)C2CCN(S(=O)(=O)c3ccc4c(c3)NC(=O)C(C)S4)CC2)c1 (centres unmarked) | 2.02% |
| COc1cc(C(=O)NCCCNc2nc3c(C)cc(C)cc3cc2C#N)cc(OC)c1OC | 17% |
| Cn1cc(Cl)c(-c2n[nH]c(=S)n2C2CCCCC2)n1 | 10.9% |
| COCCn1c(N)c(N(Cc2ccccc2)C(=O)Cc2ccccc2F)c(=O)[nH]c1=O | 8.7% |
| CCCCN(C(=O)c1ccc(C)c(S(=O)(=O)N2CCOCC2)c1)c1c(N)n(CC(C)C)c(=O)[nH]c1=O | -57.9% |
| O=[N+]([O-])c1cc(-c2ccc([As](=O)(O)O)cc2)ccc1[As](=O)(O)O | 17.2% |
| CC(C)Nc1nc(NC(C)C)nc(Oc2ccc(OCc3ccccc3)nn2)n1 | 9.27% |
| COc1ccc(Cc2nnc(NN)[nH]c2=O)cc1OC | 9.15% |
| Cc1cccc(S(=O)(=O)Nc2ccc(-c3cn4ccccc4n3)cc2)c1 | 7.2% |
| COc1ccc(NC(=O)CN(C)C(=O)Cc2ccc3c(c2)OCCO3)cc1 | 13.8% |
| CCC(=O)N(CC)C1=C(O)c2ccccc2C(=O)C1=O | 3.99% |
| C=CC(=O)NN(C)c1ncc(C(F)(F)F)cc1Cl | 19.6% |
| O=[N+]([O-])c1cccc2c([N+](=O)[O-])cccc12 | 10.5% |
